Measurements reported in the supplement of paper PMC8728848.
Some of the results follow.

Key:
Assay in all cases: glycan array binding signal (z-score within array); higher = stronger binding
Conditions in all cases: glycan notation: IUPAC condensed, linker removed
[1] = biological target: Gal(b1-3)[Fuc(a1-4)]GlcNAc(b1-3)Gal(b1-4)[Fuc(a1-3)]GlcNAc
Outline: (§1)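 Columns mapping to the same glycan were averaged after glycan names were converted to IUPAC-condensed notation. The data come from 3228 arrays in the Consortium for Functional Glycomics database, limited to those with an available protein sequence. Binding is reported as a within-array Z-score averaged across arrays of one protein sequence and across linkers.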

[2] = biological target: Gal(b1-3)[Fuc(a1-4)]GlcNAc(b1-6)GalNAc
Outline: as §1

[3] = biological target: Gal(b1-3)[GlcNAc(b1-6)]GalNAc
Outline: as §1

[4] = biological target: Gal(b1-3)[Neu5Ac(a2-6)]GalNAc
Outline: as §1

[5] = biological target: Gal(b1-3)[Neu5Ac(a2-6)]GlcNAc(b1-4)Gal(b1-4)Glc
Outline: as §1

[6] = biological target: Gal(b1-3)[Neu5Ac(b2-6)]GalNAc
Outline: as §1

Gal(b1-4)Gal = biological target: Gal(b1-4)Gal
Outline: as §1

[7] = biological target: Gal(b1-4)GalNAc(a1-3)[Fuc(a1-2)]Gal(b1-4)GlcNAc
Outline: as §1

[8] = biological target: Gal(b1-4)GalNAc(b1-3)[Fuc(a1-2)]Gal(b1-4)GlcNAc
Outline: as §1

Gal(b1-4)Glc = biological target: Gal(b1-4)Glc
Outline: as §1

Gal(b1-4)Glc6S = biological target: Gal(b1-4)Glc6S
Outline: as §1

Gal(b1-4)GlcNAc = biological target: Gal(b1-4)GlcNAc
Outline: as §1

[9] = biological target: Gal(b1-4)GlcNAc(a1-6)Gal(b1-4)GlcNAc
Outline: as §1

Gal(b1-4)GlcNAc(b1-2)Man = biological target: Gal(b1-4)GlcNAc(b1-2)Man
Outline: as §1

[10] = biological target: Gal(b1-4)GlcNAc(b1-2)Man(a1-3)Man(b1-4)GlcNAc(b1-4)GlcNAc
Outline: as §1

[11] = biological target: Gal(b1-4)GlcNAc(b1-2)Man(a1-3)[Gal(b1-4)GlcNAc(b1-2)Man(a1-6)]Man(b1-4)GlcNAc(b1-4)GlcNAc
Outline: as §1

[12] = biological target: Gal(b1-4)GlcNAc(b1-2)Man(a1-3)[Gal(b1-4)GlcNAc(b1-2)Man(a1-6)]Man(b1-4)GlcNAc(b1-4)[Fuc(a1-6)]GlcNAc
Outline: as §1

[13] = biological target: Gal(b1-4)GlcNAc(b1-2)Man(a1-3)[Gal(b1-4)GlcNAc(b1-2)Man(a1-6)][Gal(b1-4)GlcNAc(b1-4)]Man(b1-4)GlcNAc(b1-4)[Fuc(a1-6)]GlcNAc
Outline: as §1

[14] = biological target: Gal(b1-4)GlcNAc(b1-2)Man(a1-3)[Gal(b1-4)GlcNAc(b1-2)Man(a1-6)][GlcNAc(b1-4)]Man(b1-4)GlcNAc(b1-4)[Fuc(a1-6)]GlcNAc
Outline: as §1

[15] = biological target: Gal(b1-4)GlcNAc(b1-2)Man(a1-3)[GlcNAc(b1-2)Man(a1-6)]Man(b1-4)GlcNAc(b1-4)GlcNAc
Outline: as §1

[16] = biological target: Gal(b1-4)GlcNAc(b1-2)Man(a1-3)[GlcNAc(b1-4)][Gal(b1-4)GlcNAc(b1-2)Man(a1-6)]Man(b1-4)GlcNAc(b1-4)GlcNAc
Outline: as §1

[17] = biological target: Gal(b1-4)GlcNAc(b1-2)Man(a1-3)[Man(a1-6)]Man(b1-4)GlcNAc(b1-4)GlcNAc
Outline: as §1

[18] = biological target: Gal(b1-4)GlcNAc(b1-2)Man(a1-6)Man(b1-4)GlcNAc(b1-4)GlcNAc
Outline: as §1

[19] = biological target: Gal(b1-4)GlcNAc(b1-2)Man(a1-6)[GlcNAc(b1-2)Man(a1-3)]Man(b1-4)GlcNAc(b1-4)GlcNAc
Outline: as §1

[20] = biological target: Gal(b1-4)GlcNAc(b1-2)Man(a1-6)[Man(a1-3)]Man(b1-4)GlcNAc(b1-4)GlcNAc
Outline: as §1

[21] = biological target: Gal(b1-4)GlcNAc(b1-2)[Gal(b1-4)GlcNAc(b1-4)]Man(a1-3)[Gal(b1-4)GlcNAc(b1-2)Man(a1-6)]Man(b1-4)GlcNAc(b1-4)GlcNAc
Outline: as §1

[22] = biological target: Gal(b1-4)GlcNAc(b1-2)[Gal(b1-4)GlcNAc(b1-4)]Man(a1-3)[Gal(b1-4)GlcNAc(b1-2)[Gal(b1-4)GlcNAc(b1-6)]Man(a1-6)]Man(b1-4)GlcNAc(b1-4)GlcNAc
Outline: as §1

[23] = biological target: Gal(b1-4)GlcNAc(b1-2)[Gal(b1-4)GlcNAc(b1-4)]Man(a1-3)[GlcNAc(b1-4)][Gal(b1-4)GlcNAc(b1-2)Man(a1-6)]Man(b1-4)GlcNAc(b1-4)GlcNAc
Outline: as §1

[24] = biological target: Gal(b1-4)GlcNAc(b1-2)[Gal(b1-4)GlcNAc(b1-4)]Man(a1-3)[GlcNAc(b1-4)][Gal(b1-4)GlcNAc(b1-2)[Gal(b1-4)GlcNAc(b1-6)]Man(a1-6)]Man(b1-4)GlcNAc(b1-4)GlcNAc
Outline: as §1

[25] = biological target: Gal(b1-4)GlcNAc(b1-2)[Gal(b1-4)GlcNAc(b1-6)]Man(a1-6)[Gal(b1-4)GlcNAc(b1-2)Man(a1-3)]Man(b1-4)GlcNAc(b1-4)GlcNAc
Outline: as §1

[26] = biological target: Gal(b1-4)GlcNAc(b1-2)[Gal(b1-4)GlcNAc(b1-6)]Man(a1-6)[Gal(b1-4)GlcNAc(b1-2)Man(a1-3)]Man(b1-4)GlcNAc(b1-4)[Fuc(a1-6)]GlcNAc
Outline: as §1

[27] = biological target: Gal(b1-4)GlcNAc(b1-2)[Gal(b1-4)GlcNAc(b1-6)]Man(a1-6)[GlcNAc(b1-4)][Gal(b1-4)GlcNAc(b1-2)Man(a1-3)]Man(b1-4)GlcNAc(b1-4)GlcNAc
Outline: as §1

[28] = biological target: Gal(b1-4)GlcNAc(b1-2)[Gal(b1-4)GlcNAc(b1-6)]Man(a1-6)[GlcNAc(b1-4)][Gal(b1-4)GlcNAc(b1-2)[Gal(b1-4)GlcNAc(b1-4)]Man(a1-3)]Man(b1-4)GlcNAc(b1-4)[Fuc(a1-6)]GlcNAc
Outline: as §1

[29] = biological target: Gal(b1-4)GlcNAc(b1-3)Gal(b1-3)GalNAc
Outline: as §1

[30] = biological target: Gal(b1-4)GlcNAc(b1-3)Gal(b1-3)GlcNAc
Outline: as §1

[31] = biological target: Gal(b1-4)GlcNAc(b1-3)Gal(b1-4)Glc
Outline: as §1

[32] = biological target: Gal(b1-4)GlcNAc(b1-3)Gal(b1-4)GlcNAc
Outline: as §1

[33] = biological target: Gal(b1-4)GlcNAc(b1-3)Gal(b1-4)GlcNAc(b1-2)Man(a1-3)[Gal(b1-4)GlcNAc(b1-3)Gal(b1-4)GlcNAc(b1-2)Man(a1-6)]Man(b1-4)GlcNAc(b1-4)GlcNAc
Outline: as §1

B1: Als1 (Candida albicans), P46590 (protein)
chain: KTITGVFDSFNSLTWSNAANYAFKGPGYPTWNAVLGWSLDGTSANPGDTFTLNMPCVFKYTTSQTSVDLTADGVKYATCQFYSGEEFTTFSTLTCTVNDALKSSIKAFGTVTLPIAFNVGGTGSSTDLEDSKCFTAGTNTVTFNDGDKDISIDVEFEKSTVDPSGYLYASRVMPSLNKVTTLFVAPQCENGYTSGTMGFSSSNGDVAIDCSNIHIGITKGLNDWNYPVSSESFSYTKTCTSNGIQIKYQNVPAGYRPFIDAYISATDVNQYTLAYTNDYTCAGSRLQSKPFTLRWTGYKNSDAGSNGIVIVATTRTVTDSTTAVTTLPFNPSVDKTKTIEILQPIPTTTITTSYVGVTTSYLTKTAPIGETATVIVDVPYHTTTTVTSEWTGTITTTTTRTNPTDSIDTVVVQVP
[1]
  glycan array binding signal (z-score): -0.6
[2]
  glycan array binding signal (z-score): 0.658
[3]
  glycan array binding signal (z-score): -0.538
[4]
  glycan array binding signal (z-score): -0.168
[5]
  glycan array binding signal (z-score): -0.417
[6]
  glycan array binding signal (z-score): -0.157
Gal(b1-4)Gal
  glycan array binding signal (z-score): -0.695
[7]
  glycan array binding signal (z-score): -0.451
[8]
  glycan array binding signal (z-score): -0.644
Gal(b1-4)Glc
  glycan array binding signal (z-score): -0.335
Gal(b1-4)Glc6S
  glycan array binding signal (z-score): -0.453
Gal(b1-4)GlcNAc
  glycan array binding signal (z-score): -0.264
[9]
  glycan array binding signal (z-score): -0.243
Gal(b1-4)GlcNAc(b1-2)Man
  glycan array binding signal (z-score): -0.62
[10]
  glycan array binding signal (z-score): -0.558
[11]
  glycan array binding signal (z-score): -0.453
[12]
  glycan array binding signal (z-score): -0.619
[13]
  glycan array binding signal (z-score): -0.696
[14]
  glycan array binding signal (z-score): -0.709
[15]
  glycan array binding signal (z-score): 0.004
[16]
  glycan array binding signal (z-score): 8.37
[17]
  glycan array binding signal (z-score): 0.585
[18]
  glycan array binding signal (z-score): -0.576
[19]
  glycan array binding signal (z-score): 0.003
[20]
  glycan array binding signal (z-score): 0.044
[21]
  glycan array binding signal (z-score): -0.526
[22]
  glycan array binding signal (z-score): -0.151
[23]
  glycan array binding signal (z-score): -0.758
[24]
  glycan array binding signal (z-score): -0.769
[25]
  glycan array binding signal (z-score): 7.7
[26]
  glycan array binding signal (z-score): 0.092
[27]
  glycan array binding signal (z-score): -0.477
[28]
  glycan array binding signal (z-score): -0.394
[29]
  glycan array binding signal (z-score): -0.31
[30]
  glycan array binding signal (z-score): -0.605
[31]
  glycan array binding signal (z-score): -0.573
[32]
  glycan array binding signal (z-score): -0.698
[33]
  glycan array binding signal (z-score): 4.19
